Test results reported in PubChem BioAssay AID2069 (Sanford-Burnham Center for Chemical Genomics, 2009).
The whole screen tested about 1,200 compounds, of which about 210 (18%) were called active. Rule as the data show it: active = inhibition above about 30%; inactive = the rest. The entries are a selection whose mix differs from that of the whole data set.

Assay: HTRF signal interference by compounds, confirmation, artefact control for SUMOylation inhibitor project, biochemical, uHTS (AID 2069)
Details: HTRF interference counterscreen, fluorescence, at 35 µM, stronger effect = higher value

Q: For C=CCN(CC=C)c1nc2ccccc2nc1C(C#N)C(=O)OC(C)C (stereo unspecified), which inhibition is on record?
A: The inhibition was inactive: 8.7%.

Q: For COc1ccc2c(c1)C(C)=CC(C)(C)N2C(=O)Nc1ccccc1, which inhibition is on record?
A: Its inhibition is inactive: 11%.

Q: For CN(C)c1cccc2c(C=C(C#N)C#N)ccc(N(C)C)c12, which inhibition is on record?
A: The inhibition was inactive: -27.1%.

Q: For CCC(C(=O)O)n1nnc(-c2ccc(OCc3ccccc3)c(OC)c2)n1 (stereo unspecified), which inhibition is on record?
A: The inhibition was inactive: 16.9%.

Q: With COCCCn1c(C(=O)N2CC(C)OC(C)C2)cc2c(=O)n3ccccc3nc21 (stereo unspecified) as the compound, how does the inhibition read?
A: The inhibition was active: 46.4%.

Q: For Cc1cc(=O)[nH]c(SCC(=O)Nc2cccc(C(F)(F)F)c2)n1, which inhibition is on record?
A: The inhibition was inactive: -3.4%.

Q: Which inhibition does the source give for Cc1ccc(S(=O)(=O)c2c(N)n(/N=C/c3ccco3)c3nc4ccccc4nc23)cc1C here?
A: The inhibition was inactive: 8.45%.

Q: For Cc1cc(NCCO)c2cc(O)ccc2n1, which inhibition is on record?
A: Its inhibition is active: 57.5%.

Q: For Cc1ccc(C)c(S(=O)(=O)Nc2ccc(O)c3ccccc23)c1, which inhibition is on record?
A: The inhibition was inactive: -12.5%.

Q: Which inhibition does the source give for Cc1ccc(O)c(NC(=O)c2cc3nc4c(c(C(F)(F)F)n3n2)CCc2ccccc2-4)c1 here?
A: Its inhibition is inactive: 9.8%.

Q: With COc1ccc2c(c1)Cc1sc(NC(C)=O)nc1-2 as the compound, how does the inhibition read?
A: The inhibition was inactive: 5.1%.

Q: With C=CCn1c(N)c(C(=O)OC(C)(C)C)c2nc3ccccc3nc21 as the compound, how does the inhibition read?
A: Its inhibition is active: 32.7%.

Q: With COCCCNC(=O)c1c(N)n(-c2ccccc2)c2nc3ccccc3nc12 as the compound, how does the inhibition read?
A: Its inhibition is active: 33.6%.

Q: For COc1ccc(-c2cc(C(F)(F)F)n3ncc(C(=O)NCc4ccco4)c3n2)cc1, which inhibition is on record?
A: Its inhibition is active: 44.1%.

Q: For c1cc(Nc2ncnc3sc4c(c23)CCC4)ccn1, which inhibition is on record?
A: The inhibition was active: 42.9%.

Q: With C=CCNC(=O)C(C#N)c1nc2ccccc2nc1N1CCCCCC1 (stereo unspecified) as the compound, how does the inhibition read?
A: Its inhibition is inactive: 7.7%.

Q: With FC(F)(F)c1ccccc1NC(=S)Nc1cccc2cnccc12 as the compound, how does the inhibition read?
A: Its inhibition is inactive: 1.9%.

Q: Which inhibition does the source give for CCN(CC)C(=O)COc1ccc2oc(-c3ccco3)cc(=O)c2c1 here?
A: Its inhibition is active: 43.6%.

Q: With O=C(O)CCC(=O)Nc1ccccc1C(=O)Nc1ccccc1 as the compound, how does the inhibition read?
A: Its inhibition is inactive: 6.3%.

Q: With O=C(NCc1ccccc1)Nc1cccn(Cc2ccc(Cl)cc2)c1=O as the compound, how does the inhibition read?
A: The inhibition was inactive: 24.9%.

Q: For Cc1ccc(C)c(S(=O)(=O)C(C#N)c2nc3ccccc3nc2N2CC(C)OC(C)C2)c1 (stereo unspecified), which inhibition is on record?
A: The inhibition was inactive: 5.5%.

Q: With O=C1N=c2ccccc2=C1c1c(O)n(-c2cccc(F)c2)[nH]c1=O as the compound, how does the inhibition read?
A: Its inhibition is inactive: -9.65%.

Q: Which inhibition does the source give for Cc1ccc(-n2c(SCC(=O)Nc3ccc4c5c(cccc35)CC4)nc(O)cc2=O)cc1 here?
A: Its inhibition is inactive: 2.9%.

Q: Which inhibition does the source give for O=C(c1ccc2c(c1)[nH]c(=S)n1c3ccccc3nc21)N1CCN(c2ncccn2)CC1 here?
A: The inhibition was inactive: 11.9%.

Q: Which inhibition does the source give for O=C1C(Cl)=C(N2CCN(c3ccccc3[N+](=O)[O-])CC2)C(=O)c2ccccc21 here?
A: The inhibition was inactive: -5.85%.

Q: Which inhibition does the source give for O=C(Nc1ccccc1-c1nc2ccccc2s1)c1cccnc1Cl here?
A: The inhibition was active: 64%.

Q: With O=C1N=c2ccccc2=C1c1sc(Nc2ccc(O)cc2)nc1O as the compound, how does the inhibition read?
A: Its inhibition is inactive: -1.9%.

Q: For Cc1nnc(N/N=C\c2ccc(-c3ccccc3[N+](=O)[O-])o2)n1N, which inhibition is on record?
A: Its inhibition is inactive: 16%.

Q: Which inhibition does the source give for O=C1/C(=C\c2ccco2)SC(=S)N1C1CCS(=O)(=O)C1 (stereo unspecified) here?
A: The inhibition was inactive: -10.2%.

Q: Which inhibition does the source give for CC(=O)NC1C(=O)N(CCN2CCOCC2)c2ccc(Br)cc21 (stereo unspecified) here?
A: Its inhibition is active: 32.2%.

Q: Which inhibition does the source give for O=C(O)/C=C/c1cn(-c2ccccc2)nc1-c1cc2ccccc2o1 here?
A: Its inhibition is active: 41.2%.

Q: With C/C(=N\NC(=O)c1cc(O)cc(O)c1)c1ccc(NC(=O)Cc2ccccc2)cc1 as the compound, how does the inhibition read?
A: The inhibition was inactive: 25.6%.

Q: Which inhibition does the source give for N=C1/C(=C\c2ccc(SCc3ccco3)o2)C(=O)N=C2SC=NN12 here?
A: Its inhibition is inactive: 2.25%.

Q: Which inhibition does the source give for Cc1ccsc1C=Nc1ccc(O)cc1 here?
A: The inhibition was inactive: 6.8%.

Q: For Cn1c(C(=O)N2COCC2(C)C)cc2c(=O)n3ccccc3nc21, which inhibition is on record?
A: Its inhibition is active: 55.8%.

Q: For COc1ccc2nc(-c3ccco3)c(-c3ccco3)nc2c1, which inhibition is on record?
A: Its inhibition is active: 33.1%.

Q: For CN(C)/C=N/c1nc2nccc(-c3cccc(Cl)c3)n2n1, which inhibition is on record?
A: The inhibition was active: 57.1%.

Q: With COc1ccccc1NC(=O)Nc1ccnn1Cc1cccs1 as the compound, how does the inhibition read?
A: Its inhibition is active: 63.1%.

Q: With CCOC(=O)c1c(NC(=O)c2ccco2)n(C2CCCCC2)c2nc3ccccc3nc12 as the compound, how does the inhibition read?
A: The inhibition was inactive: 21.2%.

Q: For Fc1ccc(-c2nc3cnccn3c2NC2CCCC2)cc1, which inhibition is on record?
A: Its inhibition is active: 57.9%.

Q: With COc1ccc2c(c1)Cc1sc(NC(=O)c3ccco3)nc1-2 as the compound, how does the inhibition read?
A: Its inhibition is inactive: 0.75%.

Q: For O=C(COc1ccc2oc(-c3ccco3)cc(=O)c2c1)N1CCCCC1, which inhibition is on record?
A: The inhibition was active: 39.8%.

Q: With CCOC(=O)c1c(-c2ccccc2)oc2ccc(OC(C)C(=O)O)cc12 (stereo unspecified) as the compound, how does the inhibition read?
A: Its inhibition is active: 58.6%.

Q: For Oc1oc(-c2ccccc2)nc1C=Nc1cccc2ccccc12, which inhibition is on record?
A: The inhibition was inactive: 10.8%.

Q: With CC(/C=C1\SC(=S)N(C(C(=O)O)c2ccccc2)C1=O)=C\c1ccccc1 (stereo unspecified) as the compound, how does the inhibition read?
A: The inhibition was inactive: -3.8%.

Q: With CC(=O)c1ccc(N2CCN(C(=O)c3cccs3)C(C)C2)c(F)c1 (stereo unspecified) as the compound, how does the inhibition read?
A: The inhibition was inactive: 23.4%.

Q: Which inhibition does the source give for COCCn1nnnc1C(c1cc2ccc(OC)cc2[nH]c1=O)N1CCc2ccccc2C1 (stereo unspecified) here?
A: The inhibition was inactive: 3.8%.

Q: With COc1ccc(-n2c(NC(=O)c3ccco3)c(C#N)c3nc4ccccc4nc32)cc1 as the compound, how does the inhibition read?
A: Its inhibition is inactive: 4.15%.

Q: Which inhibition does the source give for COc1ccc(Cn2c(C)c(C)c(C#N)c2NC(=O)Nc2ccc(F)cc2)cc1 here?
A: Its inhibition is inactive: 1.75%.

Q: Which inhibition does the source give for O=C(Nc1ccccc1)Oc1ccc[nH]c1=O here?
A: The inhibition was inactive: 16.8%.

Q: Which inhibition does the source give for O=C1CC(c2ccco2)CC(O)=C1C=NCC1NCCc2ccccc21 (stereo unspecified) here?
A: The inhibition was inactive: 14.2%.

Q: For Cc1nn(-c2ccccc2)c2c1C(c1ccc(F)cc1)C(C#N)=C(N)O2 (stereo unspecified), which inhibition is on record?
A: The inhibition was inactive: -6.15%.

Q: For Cc1c(C(=O)O)cccc1-c1ccc(/C=C2\SC(=O)NC2=O)o1, which inhibition is on record?
A: The inhibition was inactive: -1%.

Q: With CC1(C)Nc2ccc(O)cc2-c2c1ssc2=S as the compound, how does the inhibition read?
A: Its inhibition is inactive: -19.1%.

Q: For Cc1[nH][nH]c(=O)c1C(c1ccc(-c2ccc(F)cc2)o1)c1c(C)[nH][nH]c1=O, which inhibition is on record?
A: Its inhibition is inactive: -13.8%.

Q: With Oc1ccc2ccccc2c1C=Nc1ccc(Cl)cn1 as the compound, how does the inhibition read?
A: Its inhibition is active: 37.1%.

Q: For COc1ccc(/C=C/c2cc(C(=O)O)c3ccccc3n2)cc1, which inhibition is on record?
A: The inhibition was active: 68.2%.

Q: Which inhibition does the source give for N#CC1=C(N)Oc2n[nH]c(-c3cccs3)c2C1c1cccs1 (stereo unspecified) here?
A: The inhibition was inactive: -14.2%.

Q: For COc1ccc(-n2c3nc4ccccc4nc3c3c(=N)oc(C)nc32)cc1, which inhibition is on record?
A: The inhibition was inactive: -1.2%.

Q: With Clc1ccc(C2=CSC3=Nc4cccc5cccc(c45)N23)cc1 as the compound, how does the inhibition read?
A: Its inhibition is inactive: -14.9%.

Q: With COc1ccc(-c2nc3ccc([N+](=O)[O-])cc3[nH]2)cc1 as the compound, how does the inhibition read?
A: Its inhibition is inactive: 23.2%.
